Source: PubChem BioAssay AID686970 (National Center for Advancing Translational Sciences (NCATS), 2013)
In all, about 360,000 compounds went through this assay and about 6,000 (1.7%) were called active. Not shown: some 8% with an inconclusive outcome. Calls come from the whole dose curve; as a rule, active = well fitted cell-killing curve with a large enough effect; inconclusive = small, poorly fitted or top-dose-only effect, or effect the other way; inactive = flat fitted curve, though single readings scatter. The entries are a selection whose mix differs from that of the whole data set. Where a structure was tested more than once in an assay, its records may differ in their call.

Experiment: qHTS for induction of synthetic lethality in tumor cells producing 2HG: qHTS for the HT-1080-NT fibrosarcoma cell line; note: nearly all actives have a fitted effect of over 55% in size
Settings: HT-1080-NT fibrosarcoma viability, CellTiter-Glo ATP luminescence, 48 h; series mostly up to 46.1 µM; activity, negative = less viability: at the top concentration
Source text: Unbiased genomic sequencing for 22 glioma genomes found recurrent mutation of IDH1 on chromosome 2q33, a gene encoding the cytosolic isoform of IDH1 associated with the tricarboxylic acid cycle (TCA) that catalyzes the oxidative decarboxylation of isocitrate, yielding alpha-ketoglutarate and CO2 via NADP+ to NADPH conversion. Subsequent studies confirmed the recurrent IDH mutations in up to 70% of secondary gliomas and in 10% of AML cases. In addition, the somatic mutation of cancer-associated IDH1 is a point mutation resulting in various amino-acid substituents at Arginine132 (IDH1 R132), a key residue found in the enzyme's active site that when mutated, results in the loss-of-function in metabolizing isocitrate but confers a gain-of-function to produce the oncometabolite 2-hydroxyglutarate (2HG). This in effect defines IDH1 as an oncogene and provides an extraordinary opportunity to discover chemical probes against mutant IDH1 that may translate into much needed new therapies for glioma and AML patients.
This assay aims to perform a synthetic lethal screen for chemical probes specific for 2HG-producing tumor cells using matched paired cell lines (1) HT-1080-NT fibrosarcoma cell line that overproduces 2HG and (2) HT-1080-IDH1KD cell line which has IDH1 expression knocked-down. Desirable compounds are toxic to the NT fibrosarcoma cells but not to the IDH1KD cell line. The data in this AID corresponds to the results of the qHTS against the HT-1080-NT fibrosarcoma cell line.
[1] Dang L, Jin S, Su SM. IDH mutations in glioma and acute myeloid leukemia. Trends of Mol Med. 2010; 16(9): 387-97.
[2] Dang L et al. Cancer-associated IDH1 mutations produce 2-hydroxyglutarate. Nature. 2010; 465(7300):966.
NIH Molecular Libraries Probe Production Centers Network [MLPCN]
NIH Chemical Genomics Center [NCGC]
Assay Submitter (PI): Lenny Dang Ph.D., Agios Pharmaceuticals
Suspensions of trypsinized HT-1080-NT cells were dispensed into white, tissue culture-treated, solid 1536-well plates at 5uL/well (750 cells/well final concentration) in RPMI medium supplemented with 5% FBS. Plates were incubated at 37 degrees C for 2 hours, after which 23 nL of compounds or DMSO were delivered to each well using a pin tool. Plates were then incubated at 37 degrees C for an additional 48 hours. CellTiter-Glo viability reagent (Promega) was dispensed into wells (2.5uL/well) and incubated at room temperature for 10 minutes. The plates were measured on a PerkinElmer ViewLux plate reader for luminescent signal (clear filter, 1 sec exp). DMSO-treated control wells and media-only (no cells) control wells were used to normalize %Activity of identified toxic compounds; DMSO-treated wells corresponded to 0%Activity (100% viability), while media-only controls were used to normalize 100%Activity (0% viability).
Concentration-response curves were fitted to the signals arising from the resulting luminescence. The concentration-effect curves were then classified based on curve quality (r2), response magnitude and degree of measured activity, and compounds were subsequently categorized based on their curve class.
Potency is the fitted concentration of half-maximal effect.

SMILES	Potency	activity, negative = less viability
OC[C@H]1O[C@@H](n2cnc3c(NCc4ccco4)ncnc32)[C@H](O)[C@@H]1O	active: 5.8 µM	
C[C@@H]1C[C@H]2[C@@H]3CCC4=CC(=O)C=C[C@]4(C)[C@@]3(F)[C@@H](O)C[C@]2(C)[C@@]1(O)C(=O)CO		inactive: -11.3%
CCC1Nc2ncnc(N3CCCCC3)c2N(Cc2ccc(OC)cc2)C1=O (centres undefined)		inactive: 13.1%
O=C(O)/C=C/c1ccc(Cn2ccnc2)cc1		inactive: 15.2%
O=C(O)c1ccc(NN=CC2=C(N3CCOCC3)/C(=C/c3ccccc3)CC2)cc1		inactive: -21.9%
CC(C)C[C@H]1CN([C@@H](CC(C)C)CN2CCCC2CN2C(=S)NC[C@@H]2Cc2ccc(O)cc2)C(=S)N1CC1CCCCC1 (some centres undefined)		inactive: 1.71%
Cc1ccc(Cl)c(Nc2ccccc2C(=O)O)c1Cl		inactive: -10.7%
CCN(CC)CCOC(=O)c1ccc(NC(=O)CCCN2C(=O)/C(=C/c3cccs3)SC2=S)cc1		inactive: -11.2%
Cc1cc(C)n(-c2nc(NCCN(C)C)c3c4c(sc3n2)COC(C)(C)C4)n1	active: 18.4 µM	
Cc1noc(C)c1S(=O)(=O)N(C)C[C@H]1OCc2cnnn2CCCC(=O)N([C@H](C)CO)C[C@@H]1C		inactive: 5.36%
CN/C(=C\[N+](=O)[O-])NCCSCc1csc(CN(C)C)n1		inactive: -5.57%
CCCCNc1c(-c2ccc(-c3cccc(Cl)c3)cc2)nc2ccccn12		inactive: -13.8%
OCC[C@H]1C[C@@H](O)[C@H](O)[C@@]2(OCCc3ccccc32)O1		inactive: -0.193%
CCOC(=O)c1c(CSCc2ccccc2)oc2ccc(O)c(CN(C)C)c12	active: 20.6 µM	
COc1c2ccoc2nc2c(OC)c(OCC(O)C(C)(C)O)ccc12 (centres undefined)		inactive: -8.29%
CN(C)CCC[C@]1(c2ccc(F)cc2)OCc2cc(C#N)ccc21		inactive: -2.07%
CC(Cc1ccccc1)Nc1ncnc2c1ncn2C1OC(CO)C(O)C1O (centres undefined)		inactive: -27.2%
O=C(NCc1ccccc1)C1=C[C@H](C2CCCCC2)C[C@H](OCCCCO)O1		inactive: -4.16%
O=C1NC[C@H](Cc2ccc(O)cc2)N(C[C@@H]2CCCN2C[C@H](Cc2ccccc2)N2C[C@H](Cc3ccccc3)N(CCc3ccccc3)C(=O)C2=O)C1=O		inactive: 14.6%
COc1ccc(/C=C2/CCc3ccccc3C2=O)cc1CN1CCOCC1		inactive: 3.14%
C[C@H](CO)N1C[C@H](C)[C@@H](CN(C)CC2CC2)Oc2c(NC(=O)Cc3ccccc3)cccc2C1=O	active: 25.9 µM	
C[C@]12CCC(=O)C=C1CC[C@@H]1[C@@H]2[C@@H](O)C[C@@]2(C)[C@H]1CC[C@]2(O)C(=O)COC(=O)CCC(=O)O		inactive: -26.5%
OCC[C@@H]1C[C@H](O)[C@@H](O)[C@@]2(Cc3ccccc3O2)O1		inactive: -10.9%
CC1(C)OC(c2ccccc2)=C/C(=C/C=N/NC(=O)c2ccncc2)O1		inactive: -15.2%
COc1cccc(-n2c(SCC(=O)NC3CCCCC3)nc3n[nH]c(C)c3c2=N)c1	active: 14.6 µM	

SMILES	Potency	activity, negative = less viability
Cc1ccc(S(=O)(=O)Nc2c(C)n(C)n(-c3ccccc3)c2=O)cc1		inactive: 14.3%
OC[C@H]1OC(O)[C@@H](O)[C@@H](O)[C@@H]1O (some centres undefined)		inactive: 5.46%
COC(C[C@@H](O)C[C@@H](O)[C@H](C)OCc1ccccc1)OC		inactive: 1.38%
OCC[C@@H]1C[C@@H](O)[C@H](O)[C@]2(OCCCc3ccccc32)O1		inactive: 13.1%
CCN(CC)Cc1cc2[nH]c3c4ccc(Cl)cc4ncc3c2cc1OC		inactive: -16.9%
O=C(/C=C/c1ccc(Br)cc1)c1ccc(NC(=O)c2ccco2)cc1		inactive: 13.1%
O=C(C=Cc1ccccc1Cl)c1ccccc1	active: 23.1 µM	
CCC(=O)/C=C1/Sc2ccc(OC)cc2N1CCO		inactive: 12%
C/C(=N\NC(=O)c1ccc(Br)cc1)C1C(=O)c2ccccc2C1=O	active: 2.24 µM	
COc1ccc(Nc2c3ccccc3nc3ccccc23)cc1	active: 9.2 µM	
CCOC(=O)[C@@H]1[C@H]2COc3ccccc3[C@H]2N2C(=O)N(c3ccc(Cl)cc3)C(=O)[C@]12C		inactive: -23.4%
CCN1/C(=C2/OC(=S)N(C)C2=O)Sc2ccccc21		inactive: -8.81%
Cc1ccccc1NC1=C/C(=N\S(=O)(=O)c2cccs2)c2ccccc2C1=O	active: 5.8 µM	
COc1ccc2c3c([nH]c2c1)C1CC2C(CC(O)C(OC)C2C(=O)O)CN1CC3 (centres undefined)		inactive: -4.25%
C=CCOc1ccc(C(=O)Nc2ccccc2C(=O)NCc2cccnc2)cc1	active: 20.6 µM	
CCO/C([O-])=N/c1c[n+](N2CCOCC2)no1		inactive: 16.6%
CCN(CC)c1ccc(/C=C2\SC(=O)N(C(C)C)C2=O)o1	active: 16.4 µM	
OCC[C@H]1C[C@@H](O)[C@H](O)[C@]2(OCCCc3ccccc32)O1		inactive: 7.74%
OCCN1CCN(CC(O)COc2ccc(C34CC5CC(CC(C5)C3)C4)cc2)CC1 (centres undefined)	active: 18.4 µM	
CC(=O)OCC(=O)C1(O)CCC2C3CCC4=CC(=O)C=CC4(C)C3C(O)CC21C (centres undefined)		inactive: 23.5%
CCCCCCCCCCCCCCCC(O)C(N)CO (centres undefined)		inactive: 23.5%
OCC[C@@H]1C[C@H](O)[C@@H](O)[C@]2(OCCc3ccccc32)O1		inactive: 9.69%
O=C(/C=C(\O)c1ccc(Cl)cc1)C(=O)NNC(=O)C(O)(c1ccccc1)c1ccccc1		inactive: -25.1%
CC1CC2C3CCC4=CC(=O)C=CC4(C)C3(F)C(O)CC2(C)C1(O)C(=O)CO (centres undefined)		inactive: 26.1%
